Laboratory results from PMC4336329 (PLoS ONE, 2015).
The campaign covered roughly 310,000 compounds. About 2,200 (0.71%) showed an effect of 50% or more. Effects have a minus sign here. This is one part of the list.

Target: human ether-à-go-go-related gene (hERG) potassium channel (human, UniProt Q12809)
Test: primary screen, population patch clamp on CHO cells stably expressing hERG

human ether-à-go-go-related gene (hERG) potassium channel, sequence (Q12809 whole entry, looked up): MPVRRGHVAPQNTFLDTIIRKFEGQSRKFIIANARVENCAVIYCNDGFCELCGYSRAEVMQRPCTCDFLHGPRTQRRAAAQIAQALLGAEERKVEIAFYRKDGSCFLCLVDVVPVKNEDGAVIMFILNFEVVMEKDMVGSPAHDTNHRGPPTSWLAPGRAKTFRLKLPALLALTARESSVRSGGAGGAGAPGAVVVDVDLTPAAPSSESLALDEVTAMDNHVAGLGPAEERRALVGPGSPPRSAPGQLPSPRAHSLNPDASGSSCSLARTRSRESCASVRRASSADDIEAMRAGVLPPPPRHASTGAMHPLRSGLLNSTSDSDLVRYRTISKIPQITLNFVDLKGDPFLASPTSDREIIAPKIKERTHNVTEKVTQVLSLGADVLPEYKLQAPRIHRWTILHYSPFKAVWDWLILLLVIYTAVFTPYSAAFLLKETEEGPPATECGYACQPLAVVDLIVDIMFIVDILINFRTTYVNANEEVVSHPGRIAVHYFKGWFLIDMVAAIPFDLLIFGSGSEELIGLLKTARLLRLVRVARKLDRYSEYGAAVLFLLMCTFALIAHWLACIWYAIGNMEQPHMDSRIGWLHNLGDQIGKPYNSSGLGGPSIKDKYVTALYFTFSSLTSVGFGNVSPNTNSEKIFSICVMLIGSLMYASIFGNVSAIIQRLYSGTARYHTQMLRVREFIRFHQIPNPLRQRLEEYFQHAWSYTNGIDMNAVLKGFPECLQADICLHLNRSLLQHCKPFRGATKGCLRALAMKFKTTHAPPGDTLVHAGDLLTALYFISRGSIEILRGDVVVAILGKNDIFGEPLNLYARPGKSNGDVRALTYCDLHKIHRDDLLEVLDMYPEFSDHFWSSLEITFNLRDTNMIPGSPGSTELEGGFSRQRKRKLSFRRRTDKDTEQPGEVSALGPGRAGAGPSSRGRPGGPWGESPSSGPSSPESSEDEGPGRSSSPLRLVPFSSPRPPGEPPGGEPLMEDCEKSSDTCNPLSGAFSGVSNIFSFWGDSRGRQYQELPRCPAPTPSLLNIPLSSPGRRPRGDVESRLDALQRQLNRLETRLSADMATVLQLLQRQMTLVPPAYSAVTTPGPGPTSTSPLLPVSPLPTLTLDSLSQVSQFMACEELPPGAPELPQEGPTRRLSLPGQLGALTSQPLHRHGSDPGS

| Compound | hERG current change (%, negative = inhibition) at 1uM |
| --- | --- |
| CCc1c(C)c2ccc(OCC(=O)NCC3CCC(C(=O)O)CC3)c(C)c2oc1=O (stereo not drawn) | 15.7% |
| CCCOc1ccc(N2C(=O)CC(NCC#N)C2=O)cc1 (stereo not drawn) | 7.52% |
| Cc1csc2c(N3CCN(C(=S)Nc4ccc(F)cc4F)CC3)ncnc12 | -6.87% |
| COc1cc(/C=N\Nc2nc(-c3ccc(C)cc3)c(NC(C)=O)s2)ccc1O | 4.75% |
| Cc1cc(/C=C2\SC(=S)NC2=O)c(C)n1-c1ccc(O)cc1 | 15.2% |
| COc1ccc(-c2ccc3c(c2)S(=O)(=O)c2cccc(C(=O)NCc4ccccc4Cl)c2C3=O)cc1OC | 12% |
| COc1ccc(-n2c(=O)c3c(C)c(C)sc3n(Cc3ccc(F)cc3)c2=O)c(OC)c1 | 8.32% |
| CC1CCc2nc(NC(=O)Cc3cccs3)sc2C1 (stereo not drawn) | 12.7% |
| Cn1c(SCc2ccccc2)nnc1-c1ccncc1 | -13% |
| Cc1nnc2c(NC(C)C)nc3ccccc3n12 | -5.94% |
| CCN(CC)S(=O)(=O)c1ccc(Cl)c(C(=O)NC2CCCC2)c1 | -1.71% |
| CCOc1ccc(NC(=O)COC(=O)c2cc(=O)c3ccccc3o2)cc1 | 14.1% |
| CCc1nc(SCC(=O)NNC(=O)c2ccc(C)cc2)c2ccccc2n1 | 8.56% |
| Cc1c(C#N)c2ccccc2n1C | 19.2% |
| O=C(c1ccc(F)cc1)C(Cc1ccccc1)N1CCCCC1 (stereo not drawn) | 4.96% |
| COc1ccc(CNC(=O)CN(Cc2ccco2)C(=O)CNS(=O)(=O)c2ccc(F)cc2)cc1 | -0.564% |
| COc1cc(C(=O)Nc2nc3ccc(S(C)(=O)=O)cc3s2)cc(OC)c1C | 16.1% |
| O=C(Cc1cccs1)Nc1nncs1 | 11.2% |
| COc1ccc(NS(=O)(=O)c2cccc(C(=O)NNC(=O)CN3C(=O)NC(C)(C)C3=O)c2)cc1 | 10.9% |
| O=S(=O)(Nc1ccc2c(c1)OCCO2)c1ccc(F)c(F)c1 | -1.38% |
| CCCCCc1ccc(-c2ccc(/C=C/C(N)=O)cc2)nc1 | 9.95% |
| O=C(O)c1ccc(CNC(=O)C2CCCN2C(=O)OCc2ccccc2)cc1 (stereo not drawn) | 7.89% |
| Cc1ccc(OCCCCCN2CCOCC2)cc1 | 11.4% |

| Compound | hERG current change (%, negative = inhibition) at 1uM |
| --- | --- |
| N#Cc1cc2c(nc1SCc1ccc(Cl)cc1)CCCC2 | 18.1% |
| CCC(C)Sc1nnc(CNC(=O)C23CC4CC(CC(C4)C2)C3)n1C1CCCCC1 (stereo not drawn) | 10.7% |
| O=C(CCl)NCc1c(Cl)cccc1-n1cccc1 | 3.78% |
| Cc1ccc(CCNC(=O)CCS(=O)(=O)c2ccc(Br)cc2)cc1 | -5.38% |
| O=C(c1ccco1)N1CCN(C(=O)c2snc3ccc(Cl)cc23)CC1 | -3.3% |
| Cc1cc(Br)c(NC(=O)CN2CC=C(c3ccccc3)CC2)c(Br)c1 | 14.9% |
| CCOc1ccc2nc(SCC(=O)c3ccc(O)cc3O)sc2c1 | 15.3% |
| CC1(C)NC(=O)N(CCCCOc2ccc3c(c2)CCC3)C1=O | 0.315% |
| CC1CCc2sc(C(=O)N(C)CC(=O)Nc3cccc(F)c3)cc2C1 (stereo not drawn) | 4.78% |
| O=C1NCC(COCC2CC=CCC2)O1 (stereo not drawn) | -11.3% |
| CCC(=O)Nc1ccccc1C(=O)NC1CCCCC1 | 5.02% |
| C=CCNC(=O)c1ccncc1 | 7.06% |
| O=C(Cn1cc(C(F)(F)F)ccc1=O)Nc1cc(S(=O)(=O)N2CCOCC2)ccc1Cl | 7.79% |
| COc1ccc(-c2csc3ncnc(Nc4ccc(O)cc4)c23)cc1 | 13.1% |
| O=C(NCCOc1ccccc1F)c1cc(F)c(F)cc1Cl | -3.8% |
| CC(C)NC(=O)c1ccccc1NC(=O)CCc1ccccc1 | 0.447% |
| CC(C)CCNC(=O)NC(=O)CSc1ccc(S(=O)(=O)N2CCOCC2)cn1 | 6.2% |
| CCOc1ccc(C(c2nnnn2C(C)(C)C)N2CCN(C(=O)c3ccco3)CC2)cc1 (stereo not drawn) | -41.6% |
| O=C(C1CCCC1)N1CCN(S(=O)(=O)c2cccc(Cl)c2Cl)CC1 | 9.17% |
| CCOC(=O)C1=C(C)NC(=O)NC1c1ccc(OC)c(CN2CCOCC2)c1 (stereo not drawn) | 7.7% |
| COc1ccc(NC(=O)C2CCCN2S(=O)(=O)c2ccc3c(c2)CC(C)N3C(C)=O)cc1OC (stereo not drawn) | 13.6% |
| CN1CCN(Cc2nc(Cc3ccccc3)no2)CC1c1ccccc1 (stereo not drawn) | -4.17% |
